Test results reported in PubChem BioAssay AID1240 (Sanford-Burnham Center for Chemical Genomics, 2008).
Among all 50,000 compounds or so, about 800 (1.6%) showed an effect of 50% or more. The list shows a part of the results.

target: Bcl-2-like protein 10 (Homo sapiens) (UniProt Q9HD36); assay: TR3 peptide-Bcl-B binding displacers, biochemical primary FP assay, phenotype converters (AID 1240); settings: GST-Bcl-B / FITC-TR3 peptide fluorescence polarization; stronger effect = higher value; compound at 3.75 mg/L;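 note: 0% = Bcl-B with tracer peptide and DMSO and 100% = tracer peptide lacking Bcl-B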
Chain of UniProt Q9HD36 (Q9HD36 whole entry, looked up): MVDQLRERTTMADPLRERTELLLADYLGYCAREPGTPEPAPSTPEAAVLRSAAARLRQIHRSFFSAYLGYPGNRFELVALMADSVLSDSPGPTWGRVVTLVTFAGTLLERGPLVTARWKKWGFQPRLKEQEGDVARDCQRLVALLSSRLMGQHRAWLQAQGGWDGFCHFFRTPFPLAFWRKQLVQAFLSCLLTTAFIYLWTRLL

Row | SMILES | displacement
1 | O=[N+]([O-])c1cccc(S(=O)(=O)NCc2ccccn2)c1 | 7.9%
2 | Cc1ccc(C2N(Cc3ccccc3)CCN2Cc2ccccc2)s1 | -1.7%
3 | CC(=O)c1cccc(Oc2ncnc3sc4c(c23)CCCC4)c1 | -2.8%
4 | O=C(CN(Cc1ccccc1)Oc1ccccc1)N/N=C/c1ccc(Cl)c(Cl)c1 | -6.7%
5 | O=C(O)CSCCS(=O)(=O)c1ccccc1 | -3.6%
6 | Clc1ccccc1COc1ccccc1/C=N/Nc1nc(N2CCOCC2)nc(N2CCOCC2)n1 | -1%
7 | C=CCNC(=O)c1cc(Cl)c(OC)c(Cl)c1 | 8.7%
8 | CS(=O)(=O)N(Cc1ccc(C(=O)Nc2ccc(Cl)c(C(F)(F)F)c2)cc1)c1ccccc1 | 9.4%
9 | COC(=O)c1c(C)c(-c2cccs2)nc2ccccc12 | -8.5%
10 | CCOC(=O)C(Sc1n[nH]c(=O)[nH]c1=O)c1ccccc1 (stereo unspecified) | 0.4%
11 | CCOC(=O)C1=CN(c2ccc(OCC)cc2)C=C(C(=O)OCC)C1c1cccc(F)c1 | -7.8%
12 | C=CCN(CP(=O)(OCC)OCC)C(=O)c1ccccc1F | -16.7%
13 | COc1cccc(NC(=O)C(=O)NCC(C)C)c1 | 9.2%
14 | CC(NC(=O)CN(Cc1ccccc1)S(=O)(=O)c1ccccc1)c1ccccc1 (stereo unspecified) | 9.1%
15 | CCOc1cc(C2Nc3ccccc3C(=O)N2c2ccc(C)cc2)ccc1O (stereo unspecified) | 13.4%
16 | O=C1c2ccccc2C(=O)N1n1cnnc1 | 2.9%
17 | Cc1cc(C)nc(SCC2COc3ccccc3O2)n1 (stereo unspecified) | -3.7%
18 | CCOc1cc(C2Nc3ccccc3C(=O)N2Cc2ccccc2)ccc1O (stereo unspecified) | 8.5%
19 | O=c1cnnc(N/N=C/C=C/c2ccccc2)[nH]1 | -5.7%
20 | CCOc1ccc(N(CC(=O)NCCOC)S(=O)(=O)c2ccc(SC)cc2)cc1 | -7%
21 | CCOC(=O)C1=C(O)CSC1=Nc1ccccc1 | 0.1%
22 | O=C(c1ccccc1Cl)N1CCN(c2ccc(Cl)cc2)CC1 | -5%
23 | COC(=O)C1=C(C)NC(=O)CC1c1cccc(Cl)c1 (stereo unspecified) | 7.5%

Row | SMILES | displacement
24 | O=C(O)CC(NC(=O)COc1ccc(Cl)cc1Cl)C(=O)O (stereo unspecified) | -5.6%
25 | CC(NS(=O)(=O)c1cccs1)c1ccccc1 (stereo unspecified) | -1.7%
26 | COc1ccc(/C=C2/SC(=S)N(C(C)c3ccccc3)C2=O)cc1 (stereo unspecified) | -43%
27 | COc1cccc(NC(=O)COc2ccc(C(C)(C)c3ccccc3)cc2)c1 | 8.5%
28 | COc1ccc(C2CC(=O)C3=C(C2)Nc2ccccc2NC3c2ccc(SC)cc2)cc1OC (stereo unspecified) | -13.6%
29 | Clc1cccc(-n2ncnc2-c2ccc(Br)cc2)c1 | -4%
30 | Cc1cc(OCC(=O)N2CCN(c3ccccc3)CC2)ccc1Br | 5.2%
31 | C=C(C)Cn1c(Cc2ccccc2)n[nH]c1=S | -9.5%
32 | COc1ccccc1C1CC(c2ccc(F)cc2)=NN1c1ccccc1 (stereo unspecified) | 5.4%
33 | Cc1ccc2c(c1)N(C(=O)Nc1ccccc1)C(C)(C)CC2C (stereo unspecified) | 19.9%
34 | O=C(O)c1ccc(-n2c(/C=C\c3ccccc3)nc3ccccc3c2=O)cc1 | 0.1%
35 | COc1ccccc1N1C(=O)C2C3C=CC(O3)C2C1=O (stereo unspecified) | 3.7%
36 | O=C(CSC1=NCCS1)Nc1cccc2ccccc12 | -2.2%
37 | Cc1ccc(C)n1/N=C1\NC(=O)CS1 | 42.5%
38 | CN(C)CCCNC(=O)c1cc(Cl)ccc1Cl | -1.6%
39 | COc1ccc(C(=O)/C=C/NCc2ccccc2)cc1OC | 13.6%
40 | COc1cc(C(=O)N2CCN(C3CCN(Cc4ccccc4)CC3)CC2)cc(OC)c1OC | -16.7%
41 | O=C(COc1ccccc1)Nc1ccc(Cl)cc1[N+](=O)[O-] | -11.3%
42 | O=C(c1c(Cl)cccc1Cl)N1CCN(c2ccc(F)cc2)CC1 | 9%
43 | C/C(Cc1ccccc1)=N/NC(=O)c1cc(-c2ccccc2)nc2ccccc12 | -15.7%
44 | COc1ccc(C(=O)NCc2ccccc2C)cc1 | 1.4%
45 | O=C1CN(S(=O)(=O)c2ccccc2)C(c2ccccc2)c2cc(Br)ccc2N1 (stereo unspecified) | 5.9%
46 | CCOc1ccc(-n2nc3ccc(NC(=O)c4ccc(C)c([N+](=O)[O-])c4)cc3n2)cc1 | -9.3%

Row | SMILES | displacement
47 | CCOc1ccc(NC(=O)c2cc(OCC)c(OCC)c(OCC)c2)c([N+](=O)[O-])c1 | 7.5%
48 | CCCCOc1ccc(NC(=O)COc2ccc(C)cc2C)cc1 | -3.8%
49 | CCOc1cc(C(=S)N2CCOCC2)ccc1OC(=O)c1cccc([N+](=O)[O-])c1 | 8.7%
50 | COc1cccc(OCC(=O)Nc2ccc(OC)c(OC)c2)c1 | -0.7%
51 | Cc1c(OCc2ccc(C(=O)O)cc2)ccc2c3c(c(=O)oc12)CCC3 | 8.3%
52 | CCOc1ccc(N2C(=O)/C(=C/c3ccc(C(=O)OC)cc3)SC2=S)cc1 | 7.8%
53 | COc1cc(C(=O)Nc2c(Cl)cccc2Cl)cc(OC)c1OC | 1.7%
54 | O=C(c1ccc(Cl)cc1)c1cc([N+](=O)[O-])ccc1Cl | 10.2%
55 | Fc1ccc(-c2csc(Nc3ccc4c(c3)OCO4)n2)cc1 | 3.2%
56 | Cc1cc(C)nc(/N=C(/N)Nc2ccc(C)c([N+](=O)[O-])c2)n1 | 12%
57 | O=C1NC(=S)N/C1=C/c1ccc2c(c1)OCO2 | 43.8%
58 | CC1=C(C(=O)OCc2ccccc2)C(c2ccc(O)cc2)NC(=O)N1 (stereo unspecified) | 12.7%
59 | COc1ccc(S(=O)(=O)N(CC(=O)N[C@@H]2C[C@H]3CC[C@@H]2C3)c2ccc(C)cc2)cc1OC | -7.7%
60 | COc1ccc(N2CCSC2c2ccco2)cc1 (stereo unspecified) | 12.3%
61 | COc1ccc(/C=C(/c2ccccc2)c2nc3ccccc3[nH]2)cc1 | -17.4%
62 | COc1ccccc1NC(=O)C1=C(C)NC(=O)NC1c1cccc(OC)c1OC (stereo unspecified) | -7.9%
63 | CC(=O)OC12CC3C(C1C(C)=NN2C(=O)C(=O)N1N=C(C)C2C4C(CC21OC(C)=O)C4(C)C)C3(C)C (stereo unspecified) | 8.5%
64 | Cc1ccc(NC(=O)c2cccc3ccccc23)c([N+](=O)[O-])c1 | 13.9%
65 | COc1cc(CN2CCN(C(=O)c3ccc(-c4ccccc4)cc3)CC2)cc(OC)c1OC | -1.4%
66 | Cn1c2c(c(=O)n(C)c1=O)C(c1ccc(OC(=O)c3ccc(Br)cc3)cc1)C1C(=O)c3ccccc3C1=N2 (stereo unspecified) | 3%
67 | Cn1c(-c2ccccc2)c(-c2ccccc2)n(C)c1=O | 4.7%
68 | O=P(COc1ccccc1)(c1ccccc1)c1ccccc1 | -3.3%
69 | O=C(Nc1ccc(S(=O)(=O)Nc2cnc3ccccc3n2)cc1)c1cc(Cl)ccc1[N+](=O)[O-] | 14.3%

Row | SMILES | displacement
70 | O=C(Nc1ccccc1C(=O)Nc1ccccc1)c1ccccc1F | -10%
71 | O=C(Nc1ccc(S(=O)(=O)N2CCCCCC2)cc1)c1ccc(-c2ccccc2)cc1 | 5.3%
72 | O=C(O)c1cc([N+](=O)[O-])c(C(=O)O)cc1Oc1cc(Cl)c(Cl)cc1Cl | 3.3%
73 | Cc1ccc([N+](=O)[O-])cc1S(=O)(=O)n1nnc2ccccc21 | 2.8%
74 | N#C/C(=C\c1ccc(Cl)cc1)c1nn(CCO)c(N)c1C#N | 11.2%
75 | C=CCOc1ccc(/C=C2\C(=O)N(CCOC)C(C)=C2C(=O)OCC)cc1 | -3.4%
76 | CC(C)(C)C1=NN(C(=O)c2ccccc2)C(O)(C(C)(C)C)C1 (stereo unspecified) | 11%
77 | O=C1C2C3C=CC(C2C(=O)N1c1ccc(F)cc1)C1C(=O)N(c2ccc(F)cc2)C(=O)C31 (stereo unspecified) | 3.3%
78 | Cc1cc(NS(=O)(=O)c2ccc(Nc3nc(-c4ccccn4)cs3)cc2)no1 | 14.7%
79 | c1cc2c3c(cccc3c1)-c1nc3nonc3nc1-2 | -9.1%
80 | COc1ccc(/C=C/C(=O)Nc2ccc(Cl)c3c2C(=O)c2ccccc2C3=O)cc1 | 12.8%
81 | COc1ccc(CNC(=O)COc2ccc(Br)c(C)c2)cc1 | -7.9%
82 | CN1C(=O)C2(NN=C(c3ccccc3)S2)c2ccccc21 (stereo unspecified) | -14.6%
83 | Cc1ccc(NC(=O)CN(c2cccc(Br)c2)S(=O)(=O)c2ccccc2)cc1C | 4.5%
84 | O=C1CCCCCC1CN1CCCCC1 (stereo unspecified) | 9.8%
85 | CCOc1ccc(C2OC3(C(=O)c4ccccc4C3=O)C3C(=O)N(c4ccc(Cl)cc4)C(=O)C23)cc1 (stereo unspecified) | 0.4%
86 | Cc1cccc(N2C(=O)c3cccc4c(N5CCOCC5)ccc(c34)C2=O)c1 | 154%
87 | O=C(CCCOc1ccccc1)Nc1ccccc1F | -2.5%
88 | CCOc1ccc2nc(SCC(=O)Nc3ccc(OC)cc3OC)sc2c1 | 16.2%
89 | CC(=O)ON1C(c2ccccc2)N=C(c2ccccc2)C1(C)C (stereo unspecified) | -3.8%
90 | CC(=O)N/C(=N\c1nc(C)cc(C)n1)Nc1ccc(Cl)cc1Cl | -1%
91 | O=C(Nc1ccccc1)C1CC(=O)N(c2ccc(Br)cc2)C1 (stereo unspecified) | 13.2%
92 | O=[N+]([O-])c1ccc(Nc2ccc(Br)cc2)nc1 | -6.7%

Row | SMILES | displacement
93 | O=C(c1ccc([N+](=O)[O-])cc1)N1CCN(Cc2cccc(Br)c2)CC1 | -1.9%
94 | CCc1ccc(C(=O)CSc2n[nH]c(-c3ccccc3)n2)cc1 | 11.5%
95 | O=[N+]([O-])c1cccc(-c2noc(-c3ccc(I)cc3)n2)c1 | 3.9%
96 | NS(=O)(=O)c1ccc(CCNC(=O)Nc2ccc(Cl)cc2)cc1 | 11.1%
97 | CCCCOc1ccc(C(=O)N2CCN(c3cccc(C)c3C)CC2)cc1 | -8.2%
98 | O=C1CS/C(=N\N=C\c2cccc(Br)c2)N1 | 12.2%
99 | CN1CCN(C(=O)c2cccc3ccccc23)CC1 | 2.5%
100 | CC(=O)Nc1ccc(/C=C2\C(=O)NN(c3ccccc3)C2=O)cc1 | -19%
101 | CC(C)N1CCC(=NNC(=O)C2CC2)CC1 | -0.9%
102 | CCCC(=O)Nc1cccc(NC(=O)c2ccc(-c3cccc(Cl)c3C)o2)c1 | -13.7%
103 | CCOC(=O)C(=CNc1ccc(OCc2ccccc2)cc1)C(=O)OCC | -0.6%
104 | O=c1[nH]c(O)c(C=NCc2ccccc2)c(=O)[nH]1 | 0.8%
105 | C=CCOc1ccc(Cl)cc1C=C1C(=O)NC(=O)NC1=O | 11.4%
106 | O=c1oc2ccc([N+](=O)[O-])cc2cc1-c1nc2ccccc2o1 | -4.7%
107 | CC(=O)C1C(c2ccc(N(C)C)cc2)c2c(noc2C)CC1(C)O (stereo unspecified) | -4.6%
108 | CCC(C)NS(=O)(=O)c1ccc([N+](=O)[O-])cc1 (stereo unspecified) | 2.7%
109 | C=C1c2ccc(C)cc2NC(=O)N1c1ccc(Cl)cc1 | -15.9%
110 | CCOC(=O)c1oc2ccc(CNC3CCCCC3)c(Cl)c2c1C | -6.7%
111 | CCOC(=O)c1c(CN2CCCCC2)n(C)c2cc(Br)c(O)cc12 | -3.6%
